Laboratory results published in PubChem BioAssay AID493208 (National Center for Advancing Translational Sciences (NCATS), 2011).
Out of some 44,000 compounds screened, about 340 (0.77%) were called active. Another 5% or so got no clear call; they are omitted. Calls come from the whole dose curve; as a rule, active = well fitted inhibition curve with a large enough effect; inconclusive = small, poorly fitted or top-dose-only effect; inactive = flat fitted curve, though single readings scatter. Some of the results follow.

Test: Acumen qHTS Assay for Inhibitors of the mTORC1 Signaling Pathway in MEF (Tsc2-/-, p53-/-) Cells: Sytravon;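 note: plate controls were DMSO for no effect and rapamycin for full effect; nearly all actives have a fitted effect of over 50% in size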
Conditions: phospho-rpS6 immunofluorescence/PI, 24 h; series mostly up to 38.3 µM; activity change, negative = inhibition: at the top concentration
Method in brief: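 Tsc2-/-, p53-/- mouse embryonic fibroblasts (empty-vector line) exposed to compound 24 hrs at 37 C, fixed, immunostained for phospho-rpS6 and counterstained with propidium iodide. Acumen laser scanning gives % positive cells from Alexa 488/PI ratio, thresholded using 7.5 nM rapamycin; PI count gives viability.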

Activity change, negative = inhibition, inactive:
COc1ccccc1NC(=O)CSC1=Nc2ccccc2C2=NC(CC(=O)NCCc3ccccc3)C(=O)N12 (stereo unspecified) 0.25%, COc1cc(NS(=O)(=O)c2ccc3c(c2)CC(=O)N3)cc(OC)c1OC -1.3%, CCc1ccccc1NC(=O)Cn1nnc(-c2nc(-c3ccncc3)no2)c1N 0%, Cc1ccc(NC(=O)C2CCN(S(=O)(=O)c3ccc4c(c3)CCCC(=O)N4)CC2)c(Cl)c1 1.82%, O=C(NCc1ccccc1Cl)c1ccc2c(c1)nnn2C1CCCC1 5.7%, O=C(NC1(C(F)(F)F)C(=O)Nc2c1c(=O)[nH]c(=O)n2CCc1ccccc1)c1ccc(Cl)cc1 (stereo unspecified) 0.737%, CCOc1ccc(NC(=O)CN2CCN(CC(=O)Nc3ccc(N(CC)CC)cc3)CC2)cc1 1.72%, COc1cc(NS(=O)(=O)c2ccc3[nH]c(=O)[nH]c3c2)cc(OC)c1 7.34%, CCCCC(=O)Nc1ccc2nc(SCC(=O)N3CCOCC3)sc2c1 -0.689%, Cc1ccc(NC(=O)c2c(C)oc3ncn(C)c(=O)c23)cc1F 2.08%, COc1cccc2c1Oc1ncccc1N(c1ccc(C(=O)NCc3ccccc3C)s1)C2 2.72%, CC1=C(c2ccc(C(C)C)cc2)S(=O)(=O)N=C1N1CCN(c2ccc(F)cc2)CC1 -0.988%, O=C(CCCc1ccccc1)NC1CC(=O)N(c2ccc(Cl)cc2)C1 (stereo unspecified) 2.34%, Cc1ccc(Cl)cc1NC(=O)c1ccc(NC(=O)N2CCSc3ncccc32)cc1 -1.38%, Cc1ccc(OCC(=O)Nc2nnc(SCc3cc(=O)c4ccccc4[nH]3)s2)cc1C 5.32%, COc1ccccc1C(=O)n1nc(-c2cccnc2)nc1NCc1ccccc1 -1.4%, Cc1cccc(-c2nc3c4ccccc4nc(N4CCN(c5ccc(F)cc5)CC4)n3n2)c1 -1.28%, CN(C(=O)CSc1nc2ccccc2n1CC(=O)N(C)C1CCCCC1)c1ccccc1 16.3%, Cc1ccc2c(CNC3CCCC3)c(C(=O)O)n(Cc3ccc(F)cc3)c2c1 -3.48%, Cc1ccc(C)c(NC(=O)c2cc(S(=O)(=O)NCCc3ccccc3)ccc2F)c1 6.26%, COc1ccc(NC(=O)C2CCN(S(=O)(=O)c3cc(-c4noc(C)n4)ccc3C)CC2)cc1 -1.63%, Cc1cccc(NC(=O)CN2C(=O)CCn3nc(-c4cccn4C)cc32)c1C 2.83%, CCCCNC(=O)CCn1c(=O)c2ccccc2n(Cc2cccc(Cl)c2)c1=O -16.1%, Cc1noc(/C=C/c2ccccc2F)c1S(=O)(=O)N1CCC(C(=O)Nc2ccc(C#N)cc2)CC1 1.01%, CCOC(=O)C1CCCN(C(=O)c2ccc3c(c2)N(Cc2ccc(Cl)cc2)C(=O)c2ccccc2S3=O)C1 (stereo unspecified) 0.762%, O=C(CSc1nc2ccsc2c(=O)n1-c1ccc(Br)cc1)NCc1ccccc1 -7.71%, Cc1ccccc1C(=O)N1CCC(N2CCN(Cc3ccc(F)cc3)C(=O)C2=O)CC1 7.15%, O=C(Nc1cccc(C(F)(F)F)c1)Nc1cccs1 -8.67%, O=C(CSc1nnc2scc(-c3ccccc3)n12)Nc1ccc(Cl)cc1 -7.6%, CCOC(=O)c1ccc(NC(=O)c2ccc(CN3C(=O)CCn4nc(C)cc43)cc2)cc1 3.31%, CCCCN(CC)C(=O)C1CCCN(c2ncnc3c2nc2n3CCCCC2)C1 (stereo unspecified) 4.64%, CCOc1ccc(CNC(=O)CCn2c(=O)c3cccn3c3ccc(F)cc32)cc1 -1.65%, O=C(Cn1c(=O)c2ccccc2n2nncc12)Nc1cccc(F)c1 -0.744%, O=C(NCc1nc2ccccc2[nH]1)c1cccc(Cl)c1 -3.8%, CCOC(=O)c1c(C)[nH]c(C)c1S(=O)(=O)N(C)CC(=O)NCc1cccc(Br)c1 -9.23%, COc1ccc(NC(=O)NCCn2nnc3cc(S(=O)(=O)N(C)C)ccc32)cc1 0%, CCc1cccc(C)c1NC(=O)CCCN1C(=O)C(c2ccccc2)Oc2cccnc21 (stereo unspecified) -4.77%, Cc1ccccc1Cn1cnc2nc3c(cc2c1=O)CC(C)CC3 (stereo unspecified) -0.611%, CCc1cccc(C)c1NC(=O)CCCn1nc(C)c2sc3ccccc3c2c1=O 3.98%, CCOc1ccc2nc(N3CCC(C(=O)Nc4cc(C)ccc4C)CC3)sc2c1 0.867%, Cc1ccc(Cl)cc1NC(=O)CCn1c(=O)c2cccn2c2cccnc21 0.765%, O=C(NC1CCCCC1)c1ccc(CSc2nc3ccncc3n2Cc2ccccc2F)cc1 -2.55%, COc1ccc(NC(=O)CSc2nc(-c3cccs3)cc(C(F)(F)F)n2)c(OC)c1 -17%, Cc1ccc(NC(=O)Cn2cc3c(n2)CCCC3)c(C)c1 3.46%, COCCCNC(=O)c1ccc2c(c1)nc1n2CCCCC1 6.83%, O=C(CSCc1cnn(-c2ccccc2)c1-n1cccc1)NCc1ccc(F)cc1 -4.94%, CCN(CC)CCCNC(=O)CSc1nc(-c2ccc(OC)cc2)cc(C(F)(F)F)n1 0.192%, CCc1ccc(NC(=O)CSc2ccc(-c3cccs3)nn2)cc1 0.613%, Oc1c(C(c2ccccc2Cl)N2CCN(Cc3ccccc3)CC2)sc2nc(-c3ccco3)nn12 (stereo unspecified) 0.644%, Cc1noc(Cn2c(=O)c3cc4c(cc3n(CC(=O)Nc3ccccc3F)c2=O)OCO4)n1 -5.65%, CCOC(=O)C1CCC(CN(Cc2ccc(OC)cc2)S(=O)(=O)c2ccc(F)c(C(=O)Nc3cc(C)ccc3C)c2)CC1 (stereo unspecified) 6.09%, CCOC(=O)c1cnc2ccc(OCC)cc2c1N1CCN(c2ccccc2F)CC1 -23.8%, CCOc1ccc(NC(=O)c2ccc3snnc3c2)cc1 -8.96%, Cc1nc(N2CCCC2)c2c(C(=O)Nc3ccc(Br)cc3F)c(C)oc2n1 2.92%, Cc1ccccc1C(=O)Nc1nc(-c2ccc(Br)cc2)ns1 -8.63%, COc1ccc(-c2csc3nc(-c4ccccc4)oc(=O)c23)cc1OC -8.2%, CCOC(=O)c1c(C)n(-c2ccccc2)c2ccc(OC(=O)c3cccc(Cl)c3)cc12 -5.42%, CC(C)NC(=O)C1CCC(Cn2c(=O)c3sccc3n(CC(=O)Nc3ccccc3)c2=O)CC1 (stereo unspecified) 1.42%, CC(C)Oc1ccc(CNC(=O)C2CCN(C(=O)N3CC(C)Oc4ccccc43)CC2)cc1 (stereo unspecified) 1.31%, Cc1cccc(-c2nc(CSc3nncn4c3cc3sccc34)c(C)o2)c1 -1.19%, CCOC(=O)c1ccc(CN(Cc2ccccc2)S(=O)(=O)c2ccc(Cl)cc2)cc1 -9.2%, FC(F)(F)c1cc(-c2cccc(Br)c2)nc2ncnn12 -3.71%, CCOc1ccc(NC(=O)c2ccc3c(SCC(=O)O)c4c(nc3c2)CCC4)cc1 0.187%, COc1ccc(OC)c(C2c3c(-c4ccc(Br)cc4)n[nH]c3C(=O)N2c2ccc(Cl)cc2)c1 (stereo unspecified) -12.4%, COc1ccccc1C(=O)Nc1ccc(NC(=O)c2cccs2)cc1 7.67%, COc1ccc(Nc2cc(C(=O)NCCCN(C)Cc3ccccc3)c3ccccc3n2)c(OC)c1 -14.9%, CCOc1ccc(S(=O)(=O)NCC(c2ccco2)S(=O)(=O)c2ccc(C)cc2)cc1 (stereo unspecified) 0.884%, COc1ccccc1NC(=O)N1CCN(c2nnc(C)c3c(C)n(-c4ccc(Cl)cc4)nc23)CC1 -10.7%, O=C(Nc1cccc(C(F)(F)F)c1)N1CCC(CN2CCCCCC2)CC1 -7.17%, CCOc1ccccc1NC(=O)COC(=O)c1cn(CC)c2nc(C)ccc2c1=O 9.59%, COc1cc(-c2nc3ccccn3c2Nc2ccccc2C)ccc1O 4.19%, COc1ccc(CC(=O)NCCc2sc(-c3ccc(Cl)cc3)nc2C)cc1OC -9.73%, COc1ccccc1CNS(=O)(=O)c1ccc(-c2cc(C(F)(F)F)on2)s1 -11.2%, CC1CCN(c2cc3c(cc2F)c(=O)c(S(=O)(=O)c2cccc(Cl)c2)cn3Cc2ccccc2)CC1 0.353%, Cn1nc(-c2ccccc2F)c2cc(C(=O)NCc3ccc(Cl)cc3)sc21 -11%, COc1ccc(NC(=O)C(=O)NCCc2sc(-c3ccc(Cl)cc3)nc2C)cc1 0.0803%, COc1ccc(C2=C(C(C)=O)Sc3nnc(-c4ccc(C)cc4)n3N2C(C)=O)cc1OC -1.29%, COc1ccc(OC)c(NC(=O)CCNS(=O)(=O)c2cccc3nsnc23)c1 6.29%, COc1ccccc1CNc1ccc(-c2nc(-c3ccccn3)no2)cc1[N+](=O)[O-] -4.84%, O=C(NCc1ccc(F)cc1)c1c2c(nc3ccccc13)C(=O)N(C1CCCCC1)C2 3.98%, COc1cc(Cl)c(C)cc1NC(=O)Cn1cc(S(=O)(=O)N2CCN(c3ccccc3F)CC2)c2ccccc2c1=O -2.71%, Cc1cccc(CCNC(=O)C2CCC(CNS(=O)(=O)c3c(C)cc(C)cc3C)CC2)c1 (stereo unspecified) -4.18%, O=C(Cc1ccc(NC(=O)N2CCCCc3ccccc32)cc1)NCc1ccccc1Br -0.18%, N#Cc1ccc(OC(=O)c2cc(-c3ccc(Cl)cc3)on2)cc1 -17.2%, Cc1cccc(NS(=O)(=O)c2ccc3[nH]c(=O)[nH]c3c2)c1C -7.55%, O=C(CCC1N=C2c3ccccc3N=C(SCC(=O)Nc3ccccc3F)N2C1=O)NCc1ccco1 (stereo unspecified) -2.54%, Cc1ccc(NC(=O)CN(C)S(=O)(=O)c2ccc3c(c2)n(C)c(=O)c(=O)n3C)c(C)c1 10.9%, CCc1ccc(CN2C(=O)c3ccccc3C2C(=O)NC2CCCCCC2)cc1 (stereo unspecified) 1.41%, CC(C)(C)C(=O)Nc1ccc(-c2nc3ccccc3s2)cc1 2.97%, CCOc1ccc(-c2c(C)nn3c(C)c(C(=O)NCc4cccc(OC)c4)cnc23)cc1OCC -10.7%, Cc1oc(-c2ccccc2)nc1Cn1c(SCc2cccc(C(F)(F)F)c2)nc2cccnc21 1.27%, CCc1ccccc1Nc1nn2c(=O)c3ccc(C(=O)NC4CCC(C)CC4)cc3nc2s1 (stereo unspecified) 0%, CC(=O)Nc1ccc(S(=O)(=O)NCc2ccc3c(c2)CCN3C(C)=O)cc1 -11.8%, CCOc1cc(C(=O)N(Cc2nc(-c3ccc(C)cc3)no2)C(C)C)cc(OCC)c1OCC -2.43%, COc1ccc(-n2ncc(C(=O)N3CCN(Cc4ccccc4)CC3)c2C2CCN(C(=O)OC(C)(C)C)CC2)cc1 3.03%, CCc1cnc2c(c1SCc1c(F)cccc1Cl)c(=O)n(C)c(=O)n2C 1.77%
